Reference: PubChem BioAssay (NCI)
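96-well plates; 48 h exposure; 5 concentrations. Endpoints by linear interpolation between flanking doses. Not reached: highest tested concentration assigned. Here, GI50 denotes the concentration required for 50% inhibition of growth. TGI is the concentration that stops growth completely.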

tested on: NCI-H322M lung; assay: NCI anticancer screen, dose series, 48 h

In order of falling GI50:
1. CN1CCN(c2ccc(Nc3nc(NCCCNS(=O)(=O)c4ccc(F)cc4)c4sccc4n3)cc2)CC1  13.2 µM
2. NC(N)=Nc1ccc(Oc2cccc(Nc3cccc(C(F)(F)F)c3)c2)cn1  1.63 µM
3. CC[C@H](CO)Nc1ccc2ncc(C#Cc3cncc(C(=O)Nc4ccc(CN5CCN(C)CC5)c(C(F)(F)F)c4)c3)n2n1  0.405 µM

In order of rising TGI:
1. CC[C@H](CO)Nc1ccc2ncc(C#Cc3cncc(C(=O)Nc4ccc(CN5CCN(C)CC5)c(C(F)(F)F)c4)c3)n2n1  1.74 µM
2. NC(N)=Nc1ccc(Oc2cccc(Nc3cccc(C(F)(F)F)c3)c2)cn1  3.01 µM
3. CN1CCN(c2ccc(Nc3nc(NCCCNS(=O)(=O)c4ccc(F)cc4)c4sccc4n3)cc2)CC1  32.4 µM
